The subject of this assay is TYKNU. The assay can be described thus: fractional viability relative to vehicle; TYKNU is a high-grade serous ovarian cancer line; higher = less growth inhibition. Particulars: 72 h. The method in brief: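 TYKNU control cells or lentiCRISPRv2 knockout derivatives were plated at 500 cells per well in duplicate into drug-stamped 384-well plates holding a ~2100-compound library at 2 or 10 μM. Culture was in RPMI 1640 with 10% FBS at 37 °C in 5% CO2, with 72 h of drug treatment. Viability was measured by Cell Titer Glo luminescence, and the averaged duplicate treatment wells were normalised to duplicate control wells at the same plate position.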

The mark [1] stands for this setting: 2uM, genotype: DNM1L knockout (sgDNM1L #1).
Where [2] appears, read: 2uM, genotype: sgCTRLA1 (non-targeting control).
[3] abbreviates: 10uM, genotype: DNM1L knockout (sgDNM1L #1).
Setting [4] is: 10uM, genotype: sgCTRLA1 (non-targeting control).

In the supplement of paper PMC5919970 one finds fractional viability data, which are given here for 37 compounds.

Counter-ions that a name gives are not always drawn. Whole data set: some 2,000 compounds, median “fractional viability relative to vehicle” near 0.91, cut for the lowest 2% near 0.045. Some of the results follow.

Regarding `COc1ccccc1N1CCN(CCN(C(=O)C2CCCCC2)c2ccccn2)CC1`, the fractional viability by setting is: under setting [1], 0.867; under setting [2], 1.06; under setting [3], 0.79; under setting [4], 0.973.
On the same counts, the results for `Nc1ccn([C@@H]2O[C@H](CO)[C@@H](O)C2(F)F)c(=O)n1` [Gemcitabine] are 0.129, 0.158, 0.123 and 0.107.
For the compound `CC(=O)O[C@@]12CO[C@@H]1C[C@H](O)[C@@]1(C)C(=O)[C@H](O)C3=C(C)[C@@H](OC(=O)[C@H](O)[C@@H](NC(=O)OC(C)(C)C)c4ccccc4)C[C@@](O)([C@@H](OC(=O)c4ccccc4)[C@H]21)C3(C)C` [Docetaxel], the fractional viability was 0.303 under setting [1], 0.3 under setting [2], 0.203 under setting [3] and 0.278 under setting [4].
On the same counts, the results for `O=C(/C=C/c1ccccc1)NC(NC(=S)Nc1cccc2cccnc12)C(Cl)(Cl)Cl` (stereo not drawn) [Salubrinal] are 0.989, 1.02, 0.568 and 0.955.
Take `Nc1ncnc2c1ncn2[C@@H]1O[C@H](CO)[C@@H](O)[C@H]1O` [Adenosine]: the fractional viability under setting [1] was found to be 0.806, the fractional viability under setting [2] was 1.1, the fractional viability under setting [3] amounted to 0.881 and the fractional viability under setting [4] turned out to be 1.14.
The corresponding values for `Clc1ccc(CSC(Cn2ccnc2)c2ccc(Cl)cc2Cl)cc1` (stereo not drawn) [Sulconazole Nitrate] are 1.09, 1.01, 0.628 and 0.876.
On the same counts, the results for `O=C(c1ccc(Nc2nccc(-c3cc4ccccc4s3)n2)cc1)N1CCC(N2CCCC2)CC1` [IKK-16 (IKK Inhibitor VII)] are 0.942, 0.839, 0.0381 and 0.0277.
The corresponding values for `Cc1cc(/C=C2/SC(=S)NC2=O)c(C)n1-c1cccnc1` [Optovin] are 0.901, 0.933, 0.922 and 0.876.
In turn, `Cc1cc(C)c(Nc2ccnc(Nc3ccc(C#N)cc3)n2)c(C)c1` [Dapivirine (TMC120)] came in with a fractional viability under setting [1] of 0.713, a fractional viability under setting [2] of 0.877, a fractional viability under setting [3] of 0.343 and a fractional viability under setting [4] of 0.353.
On the same counts, the results for `O=C(O)C(O)Cc1ccc(O)c(O)c1` (stereo not drawn) [Sodium Danshensu] are 1.16, 1.13, 1.07 and 1.05.
The corresponding values for `COc1cc(C(=O)O)ccc1NC(=O)[C@@H]1N[C@@H](CC(C)(C)C)[C@](C#N)(c2ccc(Cl)cc2F)[C@H]1c1cccc(Cl)c1F` [Idasanutlin (RG-7388)] are 0.719, 1.08, 0.395 and 0.747.
`N[C@@H](Cc1cc(I)c(Oc2cc(I)c(O)c(I)c2)c(I)c1)C(=O)O` [L-Thyroxine] showed a fractional viability under setting [1] of 1.03, a fractional viability under setting [2] of 1.03, a fractional viability under setting [3] of 0.941 and a fractional viability under setting [4] of 1.01.
For the compound `CC1(C)CCC(C)(C)c2cc(NC(=O)c3ccc(C(=O)O)cc3)ccc21` [Tamibarotene], the fractional viability was found to be 0.823 under setting [1], 1.01 under setting [2], 0.78 under setting [3] and 1.01 under setting [4].
For the compound `O=C1Nc2ccccc2/C1=C1/Nc2ccccc2C1=O` [Indirubin], the fractional viability under setting [1] was 0.942, the fractional viability under setting [2] came out at 1.14, the fractional viability under setting [3] is 0.882 and the fractional viability under setting [4] came out at 1.04.
The corresponding values for `Nc1cccc2c1C(=O)N(C1CCC(=O)NC1=O)C2=O` (stereo not drawn) [Pomalidomide] are 0.953, 1.05, 0.798 and 1.08.
Take `Oc1ccc(OC2CCCCO2)cc1` (stereo not drawn) [Deoxyarbutin]: the fractional viability reads like this: under setting [1], 1.02; under setting [2], 0.992; under setting [3], 0.845; under setting [4], 1.02.
Regarding `OCCOCCN1CCN(C2=Nc3ccccc3Sc3ccccc32)CC1` [Quetiapine Fumarate], the fractional viability was found to be 0.888 under setting [1], 1.14 under setting [2], 0.71 under setting [3] and 0.893 under setting [4].
As to `Cc1nc(Nc2cnn(C3CCNCC3)c2)nc2c1N(C)C(=O)c1cc3ccccc3cc1N2C`, the fractional viability reads like this: under setting [1], 0.723; under setting [2], 0.802; under setting [3], 0.376; under setting [4], 0.51.
On the same counts, the results for `Cc1cc(C(=O)NOCCO)c(Nc2ccc(I)cc2F)n(C)c1=O` are 0.245, 0.222, 0.204 and 0.201.
`CC1(C)S[C@@H]2[C@H](NC(=O)[C@H](N)c3ccc(O)cc3)C(=O)N2[C@H]1C(=O)O` [Amoxicillin]: the fractional viability reads like this: under setting [1], 1.08; under setting [2], 1.16; under setting [3], 0.888; under setting [4], 1.17.
Turning to `CC1(C)S[C@@H]2[C@H](NC(=O)[C@H](N)c3ccc(O)cc3)C(=O)N2[C@H]1C(=O)O` [Amoxicillin Sodium], the fractional viability by setting is: under setting [1], 0.976; under setting [2], 0.967; under setting [3], 0.809; under setting [4], 1.09.
The corresponding values for `COc1cccc2c1C(=O)c1c(O)c3c(c(O)c1C2=O)C[C@@](O)(C(=O)CO)C[C@@H]3O[C@H]1C[C@H](N)[C@H](O)[C@H](C)O1` [Doxorubicin (Adriamycin)] are 0.377, 0.212, 0.437 and 0.323.
The corresponding values for `O=C([C@@H](Cc1cccc(C(F)(F)F)c1)NS(=O)(=O)c1cc(F)c2c(c1)CCNC2)N1CCCC1` are 0.927, 1.04, 0.863 and 0.888.
Turning to `O=C(C=Cc1ccccc1)NC(NC(=S)Nc1ccc(Cl)cc1)C(Cl)(Cl)Cl` (stereo not drawn), the fractional viability is, setting by setting: under setting [1], 0.927; under setting [2], 1.02; under setting [3], 0.239; under setting [4], 0.257.
The corresponding values for `Nc1nc(Cl)nc2c1ncn2[C@H]1C[C@H](O)[C@@H](CO)O1` [Cladribine] are 0.38, 0.433, 0.212 and 0.247.
Regarding `Oc1ccc([C@H]2COc3cc(O)ccc3C2)cc1` [Equol], the fractional viability by setting is: under setting [1], 0.976; under setting [2], 1.04; under setting [3], 0.877; under setting [4], 1.05.
For `Fc1ccc(C(c2ccc(F)cc2)N2CCN(C/C=C/c3ccccc3)CC2)cc1` [Flunarizine 2HCl], the fractional viability was 0.928 under setting [1], 1.06 under setting [2], 0.802 under setting [3] and 0.885 under setting [4].
On the same counts, the results for `O=c1cc(-c2cccc3c2Sc2ccccc2S3)oc(N2CCOCC2)c1` are 1.22, 1.06, 0.855 and 1.03.
For `Cc1ccc(Nc2c(F)cccc2Cl)c(CC(=O)O)c1` [Lumiracoxib], the fractional viability was determined as 1.17 under setting [1], 1.14 under setting [2], 0.88 under setting [3] and 0.953 under setting [4].
The corresponding values for `N#Cc1c(O)c2c(-c3ccc(-c4ccccc4O)cc3)csc2[nH]c1=O` are 0.835, 1.09, 0.927 and 0.985.
`Cc1nc2ccc(-n3ncc(C(=O)c4cc5ccccc5[nH]4)c3N)cc2[nH]1`: the fractional viability under setting [1] turned out to be 0.935, the fractional viability under setting [2] is 0.923, the fractional viability under setting [3] was found to be 0.958 and the fractional viability under setting [4] was 0.819.
Take `CCCCC(=O)O[C@H]1CC[C@H]2[C@@H]3CCc4cc(O)ccc4[C@H]3CC[C@]12C` [Estradiol valerate]: the fractional viability stood at 0.914 under setting [1], 1.12 under setting [2], 0.341 under setting [3] and 0.406 under setting [4].
On the same counts, the results for `Cc1[nH]c2ccccc2c1CCNC(=O)c1cccs1` are 0.862, 1.02, 0.91 and 0.829.
For the compound `N=C(N)c1ccc(OCCCCCOc2ccc(C(=N)N)cc2)cc1` [Pentamidine], the fractional viability reads like this: under setting [1], 1.02; under setting [2], 1.08; under setting [3], 0.434; under setting [4], 0.338.
As for `CO/N=C(\C(=O)N[C@@H]1C(=O)N2C(C(=O)OCOC(=O)C(C)(C)C)=C(/C=C\c3scnc3C)CS[C@H]12)c1csc(N)n1` [Cefditoren Pivoxil], the fractional viability under setting [1] stood at 1.01, the fractional viability under setting [2] is 1.13, the fractional viability under setting [3] was 0.979 and the fractional viability under setting [4] worked out at 1.03.
On the same counts, the results for `CCCc1cc(=O)[nH]c(=S)[nH]1` [Propylthiouracil] are 0.915, 1.12, 1.02 and 1.02.
`Cc1onc(-c2ccccc2)c1-c1ccc(S(N)(=O)=O)cc1` [Valdecoxib]: the fractional viability was 0.988 under setting [1], 1.15 under setting [2], 0.795 under setting [3] and 0.992 under setting [4].
